Residue numbers refer to the chain shown, from its start. No constants are given. Whether binding was seen depends on the method and setting. For some of these results: In cells and extracts the contact can be indirect. Some entries that bind do so weakly or less than the wild type. For some of these results: Where a sequence is shown, tags or fusion partners need not be part of it. One block for each substance: values may come before it.
Tests used:
[1] = target: T1, PAK6-5A, expression vector for co-immunoprecipitation (UniProt Q9NQU5); assay: co-IP; as a4 but in the absence of androgen (no DHT); anti-PAK6 immunoprecipitates probed for AR
T1 sequence: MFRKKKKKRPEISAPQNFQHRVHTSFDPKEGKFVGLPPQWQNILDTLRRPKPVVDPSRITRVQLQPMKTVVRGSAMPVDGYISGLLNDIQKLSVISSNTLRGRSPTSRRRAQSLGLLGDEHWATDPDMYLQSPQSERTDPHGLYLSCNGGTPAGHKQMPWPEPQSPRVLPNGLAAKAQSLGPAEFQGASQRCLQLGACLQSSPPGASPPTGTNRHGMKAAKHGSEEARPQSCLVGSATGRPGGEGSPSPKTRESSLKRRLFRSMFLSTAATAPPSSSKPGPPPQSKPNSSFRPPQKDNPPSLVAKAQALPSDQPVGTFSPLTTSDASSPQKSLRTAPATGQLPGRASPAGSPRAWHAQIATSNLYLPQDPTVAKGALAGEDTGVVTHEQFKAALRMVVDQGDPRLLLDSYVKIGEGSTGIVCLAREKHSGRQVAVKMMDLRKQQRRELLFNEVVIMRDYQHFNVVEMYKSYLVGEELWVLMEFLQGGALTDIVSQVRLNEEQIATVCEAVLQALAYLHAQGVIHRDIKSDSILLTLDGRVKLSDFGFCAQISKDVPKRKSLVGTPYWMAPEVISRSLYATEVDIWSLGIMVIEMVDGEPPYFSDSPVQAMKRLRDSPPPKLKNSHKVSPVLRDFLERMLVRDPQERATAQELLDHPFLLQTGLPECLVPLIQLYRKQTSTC

Chains of the proteins cited; added tags and fusions are not shown.
UniProt P10275: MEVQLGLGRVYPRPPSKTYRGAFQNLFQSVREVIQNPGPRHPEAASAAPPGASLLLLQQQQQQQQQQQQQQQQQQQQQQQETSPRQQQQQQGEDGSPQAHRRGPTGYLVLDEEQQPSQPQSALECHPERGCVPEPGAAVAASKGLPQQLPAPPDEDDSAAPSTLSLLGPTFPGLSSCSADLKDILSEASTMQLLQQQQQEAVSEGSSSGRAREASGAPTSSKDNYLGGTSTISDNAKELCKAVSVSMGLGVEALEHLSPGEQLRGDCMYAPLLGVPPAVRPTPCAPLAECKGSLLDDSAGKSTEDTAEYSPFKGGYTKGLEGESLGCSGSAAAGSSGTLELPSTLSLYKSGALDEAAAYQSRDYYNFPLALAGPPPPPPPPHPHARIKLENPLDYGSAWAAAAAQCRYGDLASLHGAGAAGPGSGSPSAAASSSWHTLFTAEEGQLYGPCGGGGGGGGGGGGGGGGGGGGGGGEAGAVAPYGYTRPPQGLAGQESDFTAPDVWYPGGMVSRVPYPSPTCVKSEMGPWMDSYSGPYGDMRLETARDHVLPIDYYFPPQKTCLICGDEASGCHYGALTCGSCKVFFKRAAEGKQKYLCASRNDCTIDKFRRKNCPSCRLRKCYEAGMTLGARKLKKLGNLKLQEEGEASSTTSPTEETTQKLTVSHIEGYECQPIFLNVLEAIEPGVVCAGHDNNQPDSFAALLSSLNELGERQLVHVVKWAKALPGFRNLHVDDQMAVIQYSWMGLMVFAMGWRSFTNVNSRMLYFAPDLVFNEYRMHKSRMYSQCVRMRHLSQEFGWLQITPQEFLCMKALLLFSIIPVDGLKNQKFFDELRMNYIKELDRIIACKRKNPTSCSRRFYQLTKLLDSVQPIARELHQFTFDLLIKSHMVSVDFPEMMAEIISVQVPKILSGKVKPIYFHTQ

[2] = target: T1, PAK6-5A, expression vector for co-immunoprecipitation; assay: co-IP; reciprocal co-immunoprecipitation from HEK-293 cells co-transfected with AR and PAK6-WT, -5A or -5E, with 10 nM DHT, 20 h post-transfection; AR or PAK6 precipitated with specific antibodies, western blot for the other
[3] = target: T2, PAK6-5E, expression vector for co-immunoprecipitation (UniProt Q9NQU5); assay: as above
T2 sequence: T1 sequence with A308E, A326E, A346E, A354E, A360E

[4] = target: PAK6-WT, expression vector for co-immunoprecipitation (UniProt Q9NQU5); assay: as above
[5] = target: GAL4 DNA-binding domain-fused full-length androgen receptor (AR), pBIND vector (UniProt P10275); assay: two-hybrid; mammalian two-hybrid in HEK 293 cells: VP16-PAK6 full length or deletion mutants (pACT), GAL4 DBD-AR (pBIND), pG5-Luc reporter, renilla control; androgen treatment not stated for this panel
[6] = target: GAL4 DNA-binding domain-fused PAK6 wild type with HA tag, pBIND vector (UniProt Q9NQU5); assay: two-hybrid; mammalian two-hybrid in HEK-293 cells: VP16-HA-AR (pACT), GAL4 DBD-HA-PAK6-wt, -5A or -5E (pBIND), pG5-Luc; vehicle control or DHT (10 nM) for 20 h, dual luciferase assay
[7] = target: T3, GAL4 DNA-binding domain-fused PAK6-5A with HA tag, pBIND vector (UniProt Q9NQU5); assay: as above
T3 sequence: T1 sequence

- binding [1]: binds weakly
- binding [2]: binds
- binding [3]: no binding
- binding [4]: binds
Substance: androgen receptor (AR), expression vector for co-immunoprecipitation (from UniProt P10275 1-920)

- binding [5]: binds
Substance: VP16-fused full-length PAK6 (p21-activated kinase 6), pACT vector (from UniProt Q9NQU5 1-681)

- binding [6]: binds
- binding [7]: binds
Substance: VP16-fused full-length androgen receptor (AR) with HA tag, pACT vector (from UniProt P10275 1-920)

Source: paper PMC3795072
